Data taken from article PMC10726135.
The list shows a part of the results. At the low end of the ranking, values are background and their order means little. The protein was read in a cell extract, so binding may be indirect.

target: T1, HNF4alpha2 (COS-7 nuclear extract) (UniProt P41235); experiment: protein-binding microarray; conditions: COS-7 nuclear extract on double-stranded Agilent 4x180k PBM; binding buffer, salt, pH and temperature not given; high values mean tight binding; double strand, one strand shown; sequences stand for … in …GCCTAGGGAGATTAGAGTATCGGTCGA
T1 sequence: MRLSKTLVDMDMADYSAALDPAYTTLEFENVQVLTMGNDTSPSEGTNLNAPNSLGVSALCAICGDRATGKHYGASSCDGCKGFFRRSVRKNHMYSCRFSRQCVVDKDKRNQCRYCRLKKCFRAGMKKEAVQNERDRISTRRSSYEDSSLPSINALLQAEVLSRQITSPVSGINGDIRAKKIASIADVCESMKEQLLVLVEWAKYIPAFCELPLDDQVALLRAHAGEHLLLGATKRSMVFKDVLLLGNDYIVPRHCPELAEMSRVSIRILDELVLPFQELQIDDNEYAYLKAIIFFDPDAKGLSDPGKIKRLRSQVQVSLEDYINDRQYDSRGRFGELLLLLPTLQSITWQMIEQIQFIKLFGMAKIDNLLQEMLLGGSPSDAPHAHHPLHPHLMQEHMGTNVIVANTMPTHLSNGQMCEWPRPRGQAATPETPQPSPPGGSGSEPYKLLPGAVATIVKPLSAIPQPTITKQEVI

Sequence	binding signal (log2 normalized intensity)
CCAGTGGGGGGAAGCTCTGTCACTTCTGGT	-1.08
AAGCATTGCTTGAGTCACTTGGTTTTCACA	-0.259
CCCTTGACAATTCCTATTCATTCCCTAAGA	-1.09
GAAGTGCTGACCTTTGGTCTAAACCTACTT	5.08
GGTTCACTCTATGTTAGGCTGGAAAACTGG	0.72
TAAAGGGCAGCAAGTATTCAAGAAAGGGGC	-1.05
ATCAGACACAGAGATAAGGAGGTAACCTTT	3.48
TATGGGATGATCAGTAAGGAGAGGGGGCGG	-1.11
CTGCCAGGAGGGGACTTCAAAGGCTCCCCT	-1.12
GTTTGCTAATATCTGATGTTAAATCCACGA	-0.531
AAGCTGCAATGGCTTCACAATTCCTAGCAA	-1.08
GAGAGTTAGTTCTGCAAACACCCCTCCCCC	5.44
TTAGATAGTAGCCCTTTGTATCTTTTAAGA	1.62
ACACACACATTGCAGTATGCCCCCCCACCC	6.13
ACTGTTCAGTTCCTATTTCAACATCCTCTC	0.886
AACCAAGATTTACATCCTATCCTGGCTTCA	-0.86
TTCTGGTGATCAAACAAAAGGGACAAAGGT	1.74
TGGACATACCTCTAATCATAAAGCTGGGAA	1.1
AATTGTGTCACTCCCCAGGAATGTGCTCCC	2.26
GCAGTGAGTAACCTTGAGGAACTGAGTAAG	-0.307
CAGGAGAAGCAGAACAGGTATTTCAAGGTT	0.104
CATCCTCAGGTAAAGATCAACCATCAAGAT	-1.04
TGGTATGCTTAAGTGGCTCACCCAAGTCAC	-1.15
TACTGACCAAATGGGAACATTCCTCAGGGA	-1.14
CAGTCTAAAGTCTGATCCCAATTTATCTTT	1.35

Sequence	binding signal (log2 normalized intensity)
GTGTTGGAGCATTAGTTGACCATTGTGTTA	2.08
TTCAATGCTCCAGTAAAAGCTCTACCTGAC	-1.11
AGACAGCTGCATTTGTCCGGGTATGTTCTT	1.39
GTCCCTGCTCCACGCAAACACAAAAGGATC	-1.2
ATGACCTTTGAGCAATAGGAAATGGGAGGG	2.34
GGTCTAATTCCCAAGGGTATGTTTGTGATA	1.94
TCAGAGCCTGGCTGGCCTGGCAAATCTCTA	-0.989
TTTTTAGTGCAAGCAAAATTCCTGGGTTGC	-0.67
GTGTGGGACTTGAGGTCTTATCTTTAGGCC	1.03
GACTCTGCAGCCGAACCGGCACGGTTTCGT	-1.03
CCCTGCAGTCCTCTGCTTATCTGGCCTGCT	-0.935
CTCTTTGGTGCAAAGGTCAGGACAAGGCTC	4.3
TCCACTGTGCAGTGGGCCTTTAGAAGTGTA	0.627
GGAATCTTGCCCTGTCGCCCAGGCTGGAAT	1.09
AACTGGAAAATCAAAGACTCAGATGAGTTT	-1.12
TATTCCAGGCACAAGAATGGTCATTCTCTG	-0.977
AATACTCCAGTCATTGTACAAACACATACC	0.393
GACCAAAAGATATTTGCTGCTGACATCTCA	-1.1
TCGTAGGCAGGGCCAGATAAAGCAGGTTGT	0.444
TTGGACTTTGTACATTCCAAATACGATAAT	5.36
TCCTGGTTGGCAAACAAAAAGCTCTGCCTA	-1.14
TTTGCTTTCTTGGAGGTTAACATTTGACAA	1.47
AGGAAAACGGAGACAGAAACTGTTTCCAAT	-1.01
AGGCCAGCTCATAGGGATCAGATAAGAAGT	-0.997
GGCAAAACTGTCACAAGAAAGGCAGAAAAC	-1.19

Sequence	binding signal (log2 normalized intensity)
AAAGATGGGGATATAATCATTCATGGGCCA	1.11
GCAGAAGGCAACAGCTCTGGAGGATTTGGG	-1.05
AACGGAGACAGAAACTGTTTCCAATAGGTT	-0.896
GCTCAATCAAGGACTGGGCTGGAACACAAA	-1.13
TAAGCCTCTGACTGTTGCATCAAACAGCTT	-1.16
GACTCTAGATTGTTTGTTCTTGCTACCTAC	-0.856
ATGACACAGAGTGGAAAATAAATATTTGTT	-0.533
ACTAGACTGCCTCTTACAACGAGGTGCCAG	-1.1
AAGGTCTCAAGGCCTTGGCTTGGAACTGAC	-0.441
CATTAAAACAACCCAGAGAATGCTAGACAA	-1.11
TGGTGACCAGACTACCTCTTTAGGCTGGAC	-0.684
ACCTGCCCTGAGTCCAGCCTTCCTGTTCAA	-0.214
CTCATTTATGGAGGAATTTGGACTTTTACT	4.47
AAGCCCTTCTTCTGGAGCCTCAGTAAGTTT	0.629
CAGGAGACGTAGAGATAAGGTCTTCTACAG	-1.16
TGGTCACTTGTAAGATACTGAAATGCCAAA	-0.952
AGCAACTATAAAACAGGAAAAAGGGACAAA	-1.09
CTGCCAAAGTTCAGCCTTGGGGCCATTCCA	0.325
TAGCTGTTGGAATTTGGTCACAGAAAGTGA	1.95
CCAGCAGGGGCTGCTGGGAGTTGTAGTTTT	-1.05
CCACAGGAGGCCCCATCGCACGGCAGAACT	-1.07
GCCATGTTCTCTAGAAACAGAGCCCAAGGC	-1.1
CTCCTGGCTTCTGGACTATGCCTTGAACTT	2.66
AACCTGGGAAAACTTACGCACATTACTTTG	-1.2
GTCCAGAGGCTCCAAAGGACACTCCGCTTG	-1.2

Sequence	binding signal (log2 normalized intensity)
AACTTACCCACCTGCTGCACAACGACCCTT	2.93
AAAATATCACAATCCTTAAGCAGCAGATAA	-1.28
ACCTTCGAGCTTCACCTTTGTCCTCTCTCC	3.97
GAGATCCTGGGTTCGAATCCCAGCGGTGCC	-1.09
GCACCCGTGGTTGATCAAAGGTTGGACTGA	3.55
TGAAAAGTGAACTGTCTGCTATGTGTATAT	1.51
GAGAGCAGGTGATAAGGAACTGTTATCAAG	-0.809
CCCAGATGCCCAGCAGAGGGAGCCGCTGTG	-0.984
ATATTCTTTACATTTATTAGAACCTTATGT	2.31
TGGGAGCAAAGGTCAAGAGTTTTAAAGTAT	5.05
CCCCAATTGCCAAGGGGGTGGTGAAATGGG	-1.17
GACCCCTGTGGTACAGGCAGTGACTGGACC	2.51
TTGGATTTTTCCATATCTGTGTGCCTGTGG	1.6
CCTGTTACCCACCTGATATTGCTGGCTCTC	-0.819
AGTGGTCATTACCTCCCTGGGCATGTCTGC	1.16
CCTCCTGCCCTATGTCCTCCAGCTCTTGGG	1.53
CCAGTCCGAAGGTCCACCCGTCCGCTTGAT	1.57
GGGAGGCAAATCTCTTGGTCATGGAGGGAA	-0.35
TTGAACTCACTGACTTCCATCAATGAAGCA	-1.25
TAATGCTGAACTTTAGCTCACTGTTGAACA	0.565
GAGCAGAGAAAATTCTAGATAACTCCAAGA	-1.17
GAAAAGCAAGATTGGGAGCTGGGAGGAGCC	-1.13
GCATTGCTTCTGAAGGCTTAAGGGGAGGAT	-0.888
GGGGACGGAGAGCAGGGCGTGGACTTCGCT	0.294
CTTGAGTCCAGGAGTGCAAAGCTGCTATGA	-1.08

Sequence	binding signal (log2 normalized intensity)
AGTCCTCTTGTGGTAATCTCTTTTGTGTTA	2.4
CAGATGAAAGTAGTTGGGGATTGTGTAACA	0.893
AGTCTGCTCAAGTCTTTTAGAATGTGGATG	1.99
CTGTATTTAACTTTTGGGATCAGCAATGCT	0.117
CTTTATCAACTAAGACAGACCCAAAGGTTA	1.31
CAAACAATGAGGACGTGTGTGTTCTGGACT	2.46
CCACTGGAGACTTCAAACGGGAAGCGAGGC	-1.09
GCTGGGCCACACTGGTTCCTGCACCCGGGC	-0.876
TATCCTGTGTTCCACAGTCAAGGCCAAAGG	2.54
CAGGCCTCAGAGATAATAGGTTGTAAAGTG	1.3
GCCTCTCTGTGCTGGAACTTGCTTCCTTAT	0.913
CTTTGCCAACCTGGCCTGTTTGATCTGGTT	0.836
TCATTCTTTAAGTGTGGGGTGACTGACTTA	1.66
TGGGCAGCTTGTGTGCGTTTCCCAGATATC	1.1
AGCAGAGCTGCTGGCAGGAATTTTAAAAGT	-1.07
GAACCAGGAATCCTAGGGAAGAAACATTCT	-0.8
GGGGGCCTCTTTTAAGAAGCCAGTGTCTAT	0.263
AGGAGATAATAATACTTATCTTGCAGGGTC	1.57
ATGTGCCCTTTGGACAGAAATATCAGCAAG	2.71
CCCTGTCTGATAAGGGTGTTTGTCCTTTGT	3.02
CGCCCAGGCTGGAATGCAGTGGCGCAATCT	-1.22
CTCCTGGGACAAGGACTTTGGCTAGTGGCT	-0.344
AAGCCCCTTGGGACAGCTGGCCTCATGCCT	-1.02
GACAGGATGTTCTACACTGCTTACCCTGCA	-1.2
GTTTTTTACTGCTCCTGCTGGCTAGCCACA	-1.17

Sequence	binding signal (log2 normalized intensity)
GTGCTGGTACATAGCAGGGGTTAGGTAAAC	0.229
CACATTGTTAGCAGAAACCATCTGGCTTGG	-0.826
TTCTGGTCAAAGGTCAATGAAGCTCTTGCT	5.65
CCACCAAATCTTACCTAAGGAAGTTAACCC	1.84
CCATCCCGTGGACTCTGCCTGCCCTCTCCA	2.28
CATATGCATTCCTGCCTCAGGCCGACCCCT	3.93
CCAGAGCCTCCAAAGTCCGCTTGCCTGAGG	-1.01
ATAACTGGTTCAACCTGTTTCCACTCCAGC	-1.03
TGAAGAGAGTTAGGGCCTTGCTATGGAGTG	-0.447
TGCATGGATTTCTCAGTTGAGGAATGGGTA	1.24
GTCTGATCTTCCTGAGGAGAGCAAAGATCA	2.54
CCCACAGAGGGGGTTTGTTTTTTGCCCTTT	4.6
TGGGGACCTTTGGGCTCTGACCCGAAGGGT	1.74
CAGAGGAAGCAATCAAGCAATCATATATGC	-0.656
GGCGCTGAACTTTGCCTTGTACACAAAGAC	1.98
AGTTCTGTCCTTTGTCCCCCACCTGTGAAG	4.64
CTTAATCCTTGTCTGTTTGGCCTTAGGTCC	2.53
GAACAGAGGGGTCTGAGCACATCACACAGG	-1.05
CTGCTGGGTCAGTTTATCTAAGATTCCCCC	3.4
GTTGGACTTTGGACCTTTGTGTGTGTGTGT	7.93
